From the supplement of paper PMC4166925
± gives the standard deviation of the averaged measurements. Over roughly 33,000 sequences, “E-score (dimensionless, -0.5 to 0.5)” has its median near -0.049; the highest 2% begin near 0.37. Some of the results follow.

These sequences were tested on T1, PmTbr T-box DNA-binding domain (GST fusion) (assay: PBM E-score of 8-mer (E-score (dimensionless, -0.5 to 0.5)); Tbr is Tbrain of the sea star Patiria miniata (Pm) or the sea urchin Strongylocentrotus purpuratus (Sp); higher = stronger binding preference; most listed sequences are background and not binding sites). Conditions: the construct has about 5 more residues each side.
T1 sequence: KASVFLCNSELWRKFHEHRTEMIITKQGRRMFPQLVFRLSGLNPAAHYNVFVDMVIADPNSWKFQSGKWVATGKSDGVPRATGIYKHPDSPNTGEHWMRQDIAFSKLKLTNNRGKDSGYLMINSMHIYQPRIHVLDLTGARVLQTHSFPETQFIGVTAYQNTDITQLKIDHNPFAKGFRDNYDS
Outline: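 Primer extension turned Universal Agilent oligonucleotide arrays double-stranded. They were incubated with 200 nM protein in PBS (pH 7.5); the protein was a GST-fused Tbr T-box DNA-binding domain expressed in BL21 E. coli at 20 °C and purified on glutathione. Every ungapped 8-mer was scored from the scanned, quantified probe intensities, and the Universal PBM Analysis Suite gave each an enrichment E-score averaged over duplicate arrays.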

| Sequence | PBM E-score of 8-mer |
| --- | --- |
| AATTACCG | 0.0948 ± 0.036 |
| GTTCAGAA | -0.0736 ± 0.1 |
| ACAGACCC | 0.0984 ± 0.0065 |
| TACCTGAA | -0.0946 ± 0.0015 |
| AACAAGAA | -0.105 ± 0.079 |
| AGTGGATG | -0.1874 ± 0.00053 |
| AAAGCCCG | -0.0284 ± 0.041 |
| CTGCGCGC | 0.0692 ± 0.036 |
| GTATTACA | -0.0394 ± 0.027 |
| AACTATCA | 0.136 ± 0.026 |
| CGGTGCCA | 0.195 ± 0.0034 |
| ACGGCCTA | -0.231 ± 0.014 |
| AAAGGTGG | 0.234 ± 0.084 |
| TCCGCGCA | -0.0129 ± 0.15 |
| AGATGGCA | 0.162 ± 0.057 |
| ACCTGAGC | -0.0282 ± 0.035 |
| ACGATTAA | -0.0817 ± 0.013 |
| ACTCAGAT | -0.0293 ± 0.074 |
| TCTATTCA | 0.0759 ± 0.049 |
| AGCGGTCA | -0.145 ± 0.11 |
| GGCTGACA | 0.26929 ± 0.00013 |
| CATTCGGC | -0.0828 ± 0.042 |
| CGTACATA | -0.0161 ± 0.02 |
| ACGAGAGG | 0.0873 ± 0.05 |
| TACTTCTA | -0.14 ± 0.025 |

| Sequence | PBM E-score of 8-mer |
| --- | --- |
| AATACAGA | 0.033 ± 0.0049 |
| ACCCGACT | 0.0457 ± 0.056 |
| GCGAATCC | 0.294 ± 0.021 |
| AAGCCGAG | -0.0365 ± 0.014 |
| GACGCGAC | 0.207 ± 0.015 |
| GTTTTGTA | -0.159 ± 0.056 |
| CTCCCTTC | -0.181 ± 0.14 |
| CTCTTGAC | 0.168 ± 0.027 |
| AACGGGTC | 0.0374 ± 0.029 |
| AGCAAGAT | 0.0164 ± 0.08 |
| AAGAGGCC | -0.234 ± 0.0038 |
| AGCGCCCT | 0.101 ± 0.026 |
| GTTCGTGA | 0.0809 ± 0.031 |
| AGTACGTA | -0.0277 ± 0.038 |
| CAAAGTGG | 0.0955 ± 0.052 |
| GTGACCGA | 0.0574 ± 0.029 |
| GACCGACC | -0.0482 ± 0.1 |
| GGTAGACC | -0.167 ± 0.028 |
| ACGAAGCG | -0.0233 ± 0.14 |
| CTTGCGCC | 0.0975 ± 0.042 |
| CAGGTCCA | -0.14 ± 0.0038 |
| ATCGACGA | -0.0605 ± 0.13 |
| CCGACTAC | -0.106 ± 0.024 |
| CACCACTG | 0.1882 ± 0.00029 |
| CTAGTGAA | 0.0741 ± 0.0051 |

| Sequence | PBM E-score of 8-mer |
| --- | --- |
| ATCCCCAC | 0.201 ± 0.017 |
| CCAGGGAC | -0.11 ± 0.0013 |
| ATGTCTTC | -0.0952 ± 0.012 |
| ACCCAAAC | 0.027 ± 0.033 |
| GCCATTCA | 0.104 ± 0.018 |
| AGCTGCGA | 0.292 ± 0.03 |
| GCTGATGA | 0.0826 ± 0.021 |
| ATTCTTTG | -0.109 ± 0.048 |
| ATTAAGGA | -0.159 ± 0.045 |
| CTCTAATC | -0.29 ± 0.038 |
| CACGAGTC | 0.0955 ± 0.0089 |
| GACCGGAC | 0.0558 ± 0.0036 |
| CAGCGGAG | 0.0331 ± 0.067 |
| ACCTTCGC | 0.246 ± 0.045 |
| CAACAGCA | 0.168 ± 0.04 |
| ATATTGAA | -0.172 ± 0.12 |
| AATCATAG | -0.1427 ± 0.0014 |
| CAAACGAG | -0.024 ± 0.024 |
| CAGAACAC | 0.0625 ± 0.017 |
| TAACTCTA | -0.103 ± 0.051 |
| GCGCTAGA | 0.209 ± 0.016 |
| TCGCTAGA | 0.152 ± 0.02 |
| TGGCTTAA | -0.353 ± 0.045 |
| AAGGTTCA | 0.0379 ± 0.076 |
| AGCACAGC | -0.137 ± 0.0099 |

| Sequence | PBM E-score of 8-mer |
| --- | --- |
| AAGAGTAT | -0.0661 ± 0.0086 |
| AGGCCGAC | -0.0587 ± 0.016 |
| TTGGCCAA | -0.108 ± 0.023 |
| CAAATCCC | 0.0413 ± 0.012 |
| CACAAGAC | 0.0761 ± 0.055 |
| AACAGGCT | -0.165 ± 0.019 |
| CATATCCA | 0.0671 ± 0.023 |
| CTGTCCGA | -0.253 ± 0.02 |
| ATGGATCA | -0.268 ± 0.042 |
| CCTGTGGC | -0.074 ± 0.037 |
| AAGCCTGG | -0.135 ± 0.045 |
| AGTTTTAA | 0.0281 ± 0.082 |
| AGGCTACG | -0.194 ± 0.0097 |
| GCGCGAAA | 0.4397 ± 0.0003 |
| ACCGAACG | -0.000335 ± 0.0076 |
| GCTCCCTA | -0.225 ± 0.056 |
| CCTAAACG | 0.0736 ± 0.0031 |
| GCTCGGAA | -0.22 ± 0.021 |
| GTAAAAAC | 0.022 ± 0.068 |
| AGCTGTGG | 0.0136 ± 0.075 |
| CTGTTTGA | -0.144 ± 0.048 |
| CGCTGTTC | -0.0409 ± 0.011 |
| GACTTCGC | 0.121 ± 0.0073 |
| CCCTAGAC | -0.152 ± 0.00088 |
| AGTCCCTG | -0.158 ± 0.023 |

| Sequence | PBM E-score of 8-mer |
| --- | --- |
| AATGTAGG | -0.228 ± 0.0062 |
| CTAATCCA | -0.0637 ± 0.017 |
| GAACTATC | -0.095 ± 0.022 |
| CAGAACCG | -0.0987 ± 0.021 |
| TAGCCCAA | -0.2 ± 0.0096 |
| CAACAAAC | 0.0469 ± 0.022 |
| GTGCACAC | 0.19 ± 0.017 |
| ACACTCTG | 0.2899 ± 0.00065 |
| ATAGCGCG | 0.268 ± 0.017 |
| CCGCCACC | 0.233 ± 0.076 |
| ACTCTGCG | 0.0927 ± 0.034 |
| GCTTCTCC | -0.24 ± 0.009 |
| TTCGCCAA | 0.115 ± 0.016 |
| CTGGTACC | -0.0542 ± 0.023 |
| CGTCAATA | 0.1 ± 0.028 |
| ATGCGGAC | -0.203 ± 0.02 |
| ACAGTGAC | 0.187 ± 0.034 |
| CATCGGCG | 0.109 ± 0.004 |
| ATTTGGCG | 0.221 ± 0.042 |
| AGACTCGA | -0.141 ± 0.058 |
| GGTACCAC | 0.106 ± 0.022 |
| ATAGTACC | -0.0148 ± 0.0029 |
| GCATAAGA | -0.195 ± 0.018 |
| CTCTGGAC | -0.173 ± 0.042 |
| CTCGGCTA | 0.0919 ± 0.061 |

| Sequence | PBM E-score of 8-mer |
| --- | --- |
| AATACCAC | 0.163 ± 0.0061 |
| ATTGCCAG | 0.132 ± 0.016 |
| AGCACTGC | 0.0402 ± 0.02 |
| AAGTCAGC | -0.141 ± 0.014 |
| ACTGTCCT | -0.205 ± 0.061 |
| AATTTCGG | 0.0486 ± 0.022 |
| AAATTTTG | -0.103 ± 0.082 |
| CAGAGCGG | -0.254 ± 0.057 |
| CCTGCCTA | -0.173 ± 0.05 |
| AGTTGTTG | 0.195 ± 0.0086 |
| ATATACTA | 0.14 ± 0.055 |
| CCCGTGTA | -0.229 ± 0.036 |
| TCAGTCGA | -0.0383 ± 0.035 |
| CCTGAGAA | -0.177 ± 0.044 |
| AAGAAACG | -0.191 ± 0.031 |
| GGCTACCC | -0.236 ± 0.033 |
| GGATCCGA | -0.166 ± 0.0055 |
| ATTATCTA | -0.156 ± 0.057 |
| AAAAAACA | -0.0435 ± 0.077 |
| ACCCGGAC | 0.0913 ± 0.022 |
| GTTATGCA | -0.00854 ± 0.022 |
| GACATGTC | 0.254 ± 0.033 |
| GAAGGCGA | 0.147 ± 0.0065 |
| ATCATACC | -0.142 ± 0.059 |
| AAAAGAGC | -0.125 ± 0.041 |

| Sequence | PBM E-score of 8-mer |
| --- | --- |
| CGTAACTA | -0.0993 ± 0.091 |
| ATGTAGGA | -0.0614 ± 0.031 |
| ATCGACAT | -0.0511 ± 0.09 |
| CGGTTTTC | -0.0777 ± 0.022 |
| AGTATATC | -0.0566 ± 0.022 |
| CGTTCGGC | -0.0976 ± 0.041 |
| CGCATTAC | 0.0561 ± 0.044 |
| GCTGCACC | 0.153 ± 0.013 |
| CCCGGAAC | -0.119 ± 0.05 |
| AACTGTAA | 0.0675 ± 0.059 |
| GAGGCCGC | -0.106 ± 0.0075 |
| CTACCATC | 0.0652 ± 0.017 |
| AGAGCTTA | -0.0767 ± 0.015 |
| ATCTCATA | -0.127 ± 0.024 |
| CGGACCCG | 0.0789 ± 0.022 |
| ACCTCATC | 0.028 ± 0.1 |
| CGGGCTTA | -0.155 ± 0.018 |
| GATTACAC | 0.199 ± 0.091 |
| GCAAGGGA | -0.0713 ± 0.1 |
| ACCTTCAC | 0.274 ± 0.025 |
| ATATTATC | 0.0113 ± 0.083 |
| AGCGGGTG | 0.308 ± 0.017 |
